A lower IC50 marks a more sensitive line; fits outside the tested doses are given as limits. For AUC the same curve is integrated over the 256-fold range of doses and scaled to a fraction: 1 means no effect, lower means more sensitive. Where the top dose is marked as inferred, it was derived from the fitted curves, not read from the paper. For part of these data: An entry number marks a drug with two screens in the source, which often give different values.
How the values were obtained:
Assay in all cases: Viability of human cancer cell lines after 72 h of drug (GDSC screen)
Shikonin = compound: CC(C)=CC[C@@H](O)C1=CC(=O)c2c(O)ccc(O)c2C1=O [Shikonin]; conditions: top dose 16 µM; top dose inferred
Description: (§1)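 Human cancer cell lines in 384-well plates, medium with 10% serum, drug for 72 h over a 256-fold dose range (nine 2-fold or five 4-fold steps up to the top dose). Adherent lines were fixed and stained with the nucleic acid dye Syto60, suspension lines read with resazurin; signal relative to control wells, capped at 0 and 100%. One two-parameter sigmoid per drug and line, fitted in a mixed model over all curves with the slope shared within a line.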

CGP-082996 (CINK4) = compound: CCNc1cc(NC2CCC(O)CC2)nc(Nc2ccc3c(ccn3Cc3ccccc3)c2)n1 [CGP-082996 (CINK4)]; conditions: top dose 5.12 µM; top dose inferred
Description: as §1

A-770041 = compound: COc1cc(-c2nn([C@H]3CC[C@H](N4CCN(C(C)=O)CC4)CC3)c3ncnc(N)c23)ccc1NC(=O)c1cc2ccccc2n1C [A-770041]; conditions: top dose 5.12 µM; top dose inferred
Description: as §1

XMD8-85 = compound: COc1cc(N2CCN(C)CC2)ccc1Nc1ncc2c(n1)N(C)c1ccccc1C(=O)N2C [XMD8-85]; conditions: top dose 8 µM; top dose inferred
Description: as §1

BMS-536924 = compound: Cc1cc(N2CCOCC2)cc2[nH]c(-c3c(NC[C@@H](O)c4cccc(Cl)c4)cc[nH]c3=O)nc12 [BMS-536924]
Description: as §1

BIRB 0796 = compound: Cc1ccc(-n2nc(C(C)(C)C)cc2NC(=O)Nc2ccc(OCCN3CCOCC3)c3ccccc23)cc1 [BIRB 0796]; conditions: top dose 10 µM; top dose inferred
Description: as §1

SB-525334 = compound: Cc1cccc(-c2[nH]c(C(C)(C)C)nc2-c2ccc3nccnc3c2)n1 [SB-525334]; conditions: top dose 20 µM; top dose inferred
Description: as §1

VX-702 = compound: NC(=O)c1ccc(N(C(N)=O)c2c(F)cccc2F)nc1-c1ccc(F)cc1F [VX-702]; conditions: top dose 2 µM; top dose inferred
Description: as §1

Olaparib = compound: O=C(c1cc(Cc2n[nH]c(=O)c3ccccc23)ccc1F)N1CCN(C(=O)C2CC2)CC1 [Olaparib]
Description: as §1

Wee1 inhibitor 681640 = compound: O=C1NC(=O)c2c1c(-c1ccccc1Cl)cc1[nH]c3ccc(O)cc3c21 [Wee1 inhibitor 681640]; conditions: top dose 2 µM; top dose inferred
Description: as §1

[1] = top dose 4 µM, screen: GDSC drug entry 1091, top dose inferred
[2] = top dose 5.12 µM, screen: GDSC drug entry 62
[3] = top dose 5 µM, screen: GDSC drug entry 1017, top dose inferred
[4] = top dose 10 µM, screen: GDSC drug entry 1495

Cell Line	AUC (Shikonin)	IC50 (Shikonin)	AUC (CGP-082996 (CINK4))	IC50 (CGP-082996 (CINK4))	AUC (A-770041)	IC50 (A-770041)	AUC (XMD8-85)	IC50 (XMD8-85)	AUC (BMS-536924; [1])	IC50 (BMS-536924; [1])	AUC (BMS-536924; [2])	IC50 (BMS-536924; [2])	AUC (BIRB 0796)	IC50 (BIRB 0796)	AUC (SB-525334)	IC50 (SB-525334)	AUC (VX-702)	IC50 (VX-702)	AUC (Olaparib; [3])	IC50 (Olaparib; [3])	AUC (Olaparib; [4])	IC50 (Olaparib; [4])	AUC (Wee1 inhibitor 681640)	IC50 (Wee1 inhibitor 681640)
JiyoyeP-2003 (Burkitt lymphoma, suspension)	0.559	1.41 µM	0.958	> 5.12 µM	0.822	2.52 µM	0.885	6.86 µM	0.981	> 4 µM	0.871	3.86 µM	0.99	> 10 µM	0.937	> 20 µM	0.981	> 2 µM	0.984	> 5 µM	0.988	> 10 µM	0.991	> 2 µM
KARPAS-45 (lymphoblastic leukaemia, suspension)	0.763	4.89 µM	0.858	3.14 µM	0.826	2.43 µM	0.832	–	0.979	> 4 µM	0.837	2.65 µM	0.991	> 10 µM	0.937	> 20 µM	0.982	> 2 µM	0.982	> 5 µM	0.972	> 10 µM	0.962	> 2 µM
KARPAS-299 (anaplastic large cell lymphoma, suspension)	0.484	0.909 µM	0.937	> 5.12 µM	0.889	4.14 µM	0.893	6.73 µM	0.872	2.76 µM	0.826	2.42 µM	0.988	> 10 µM	0.984	> 20 µM	0.983	> 2 µM	0.989	> 5 µM	0.948	> 10 µM	0.957	> 2 µM
KARPAS-422 (B-cell lymphoma, suspension)	0.666	2.87 µM	0.829	3.13 µM	0.932	> 5.12 µM	0.886	> 8 µM	0.966	> 4 µM	0.98	> 5.12 µM	0.982	> 10 µM	0.976	> 20 µM	0.975	> 2 µM	0.986	> 5 µM	0.978	> 10 µM	0.972	> 2 µM
KE-37 (lymphoblastic leukaemia, suspension)	0.355	0.441 µM	0.981	> 5.12 µM	0.953	> 5.12 µM	0.928	7.78 µM	0.988	> 4 µM	0.994	> 5.12 µM	0.994	> 10 µM	0.969	> 20 µM	0.993	> 2 µM	0.99	> 5 µM	0.986	> 10 µM	0.914	1.67 µM
KM-H2 (Hodgkin lymphoma, suspension)	0.542	1.28 µM	0.96	> 5.12 µM	0.979	> 5.12 µM	0.991	> 8 µM	0.991	> 4 µM	0.933	> 5.12 µM	0.993	> 10 µM	0.986	> 20 µM	0.987	> 2 µM	0.99	> 5 µM	0.977	> 10 µM	0.977	> 2 µM
KMOE-2 (acute myeloid leukaemia, suspension)	0.446	0.723 µM	0.983	> 5.12 µM	0.988	> 5.12 µM	0.949	> 8 µM	0.888	3.65 µM	0.936	> 5.12 µM	0.973	> 10 µM	0.96	> 20 µM	0.983	> 2 µM	0.984	> 5 µM	0.981	> 10 µM	0.977	> 2 µM
KNS-81-FD (glioma, adherent)	0.548	1.42 µM	0.966	> 5.12 µM	0.979	> 5.12 µM	0.969	> 8 µM	0.958	> 4 µM	0.957	> 5.12 µM	0.913	> 10 µM	0.772	10.6 µM	0.943	> 2 µM	0.976	> 5 µM	0.921	> 10 µM	0.899	> 2 µM
KS-1 (glioma, adherent)	0.23	0.131 µM	0.835	4.59 µM	0.64	0.864 µM	0.811	5.62 µM	0.736	1.42 µM	0.354	0.114 µM	0.975	> 10 µM	0.856	> 20 µM	0.975	> 2 µM	0.969	> 5 µM	0.738	3.6 µM	0.958	> 2 µM
KU812 (chronic myeloid leukaemia, suspension)	0.143	0.0889 µM	0.942	> 5.12 µM	0.812	2.44 µM	0.865	6.07 µM	0.896	> 4 µM	0.949	> 5.12 µM	0.988	> 10 µM	0.954	> 20 µM	0.958	> 2 µM	0.961	> 5 µM	0.935	> 10 µM	0.943	> 2 µM
KY821 (leukaemia, suspension)	0.434	0.676 µM	0.933	> 5.12 µM	0.834	2.75 µM	0.96	> 8 µM	0.915	> 4 µM	0.863	3.53 µM	0.992	> 10 µM	0.977	> 20 µM	0.98	> 2 µM	0.984	> 5 µM	0.974	> 10 µM	0.949	> 2 µM
L-363 (myeloma, suspension)	0.659	2.59 µM	0.914	> 5.12 µM	0.968	> 5.12 µM	0.888	6.87 µM	0.6	0.452 µM	0.501	0.321 µM	0.985	> 10 µM	0.971	> 20 µM	0.928	> 2 µM	0.962	> 5 µM	0.962	> 10 µM	0.954	> 2 µM
L-540 (Hodgkin lymphoma, suspension)	0.782	5.92 µM	0.943	> 5.12 µM	0.98	> 5.12 µM	0.876	6.46 µM	0.877	3.25 µM	0.894	4.99 µM	0.923	> 10 µM	0.965	> 20 µM	0.959	> 2 µM	0.984	> 5 µM	0.895	9.87 µM	0.941	> 2 µM
L-1236 (Hodgkin lymphoma, suspension)	0.647	2.38 µM	0.99	> 5.12 µM	0.967	> 5.12 µM	0.853	4.8 µM	0.814	1.77 µM	0.701	1.06 µM	0.992	> 10 µM	0.943	> 20 µM	0.984	> 2 µM	0.992	> 5 µM	0.989	> 10 µM	0.987	> 2 µM
LAMA-84 (chronic myeloid leukaemia, suspension)	0.54	1.29 µM	0.911	> 5.12 µM	0.378	–	0.902	> 8 µM	0.981	> 4 µM	0.792	2.35 µM	0.97	> 10 µM	0.955	> 20 µM	0.852	1.59 µM	0.938	> 5 µM	0.955	> 10 µM	0.81	1.07 µM
LC4-1 (lymphoblastic leukaemia, suspension)	0.38	0.45 µM	0.894	> 5.12 µM	0.892	> 5.12 µM	0.772	3.41 µM	0.977	> 4 µM	0.935	> 5.12 µM	0.978	> 10 µM	0.938	> 20 µM	0.984	> 2 µM	0.985	> 5 µM	0.915	> 10 µM	0.98	> 2 µM
LOUCY (T-cell lymphoblastic leukaemia, suspension)	0.436	0.692 µM	0.989	> 5.12 µM	0.967	> 5.12 µM	0.961	> 8 µM	0.991	> 4 µM	0.983	> 5.12 µM	0.988	> 10 µM	0.952	> 20 µM	0.992	> 2 µM	0.986	> 5 µM	0.973	> 10 µM	0.924	> 2 µM
LS-411N (large intestine, adherent)	0.593	1.9 µM	0.861	> 5.12 µM	0.937	> 5.12 µM	0.826	6.3 µM	0.892	> 4 µM	0.576	0.542 µM	0.969	> 10 µM	0.908	> 20 µM	0.972	> 2 µM	0.959	> 5 µM	0.962	> 10 µM	0.963	> 2 µM
LU-134-A (small cell lung carcinoma, suspension)	0.45	0.725 µM	0.986	> 5.12 µM	0.962	> 5.12 µM	0.938	> 8 µM	0.879	> 4 µM	0.791	2.47 µM	0.977	> 10 µM	0.947	> 20 µM	0.986	> 2 µM	0.932	> 5 µM	0.938	> 10 µM	0.985	> 2 µM
LU-139 (small cell lung carcinoma, suspension)	0.669	3.4 µM	0.924	> 5.12 µM	0.976	> 5.12 µM	0.859	> 8 µM	0.972	> 4 µM	0.98	> 5.12 µM	0.979	> 10 µM	0.721	6.44 µM	0.524	0.148 µM	0.797	3.16 µM	0.939	> 10 µM	0.897	> 2 µM
LU-165 (small cell lung carcinoma, suspension)	0.431	–	0.977	> 5.12 µM	0.954	> 5.12 µM	0.988	> 8 µM	0.927	> 4 µM	0.899	> 5.12 µM	0.988	> 10 µM	0.918	> 20 µM	0.988	> 2 µM	0.988	> 5 µM	0.98	> 10 µM	0.985	> 2 µM
MC116 (B-cell lymphoma, suspension)	0.612	1.86 µM	0.903	3.09 µM	0.803	1.73 µM	0.935	6.01 µM	0.999	> 4 µM	0.983	> 5.12 µM	0.999	> 10 µM	0.996	> 20 µM	0.999	> 2 µM	0.998	> 5 µM	0.999	> 10 µM	0.999	> 2 µM

— the supplement of paper PMC4967469
